Data on 37 targets can be found in the supplement of paper PMC12067093, “Discovery and optimisation of a covalent ligand for TRIM25 and its application to targeted protein ubiquitination” (Chemical Science, 2025).

Compound in this test: Cc1cc(ccc1-c1ccccc1)C(=O)N1CCCN(CC1)C(=O)CCl [compound 10]
As to the kind of experiment: probe-labelled cysteine peptide fold change vs DMSO (competition) (log2 fold change); higher = less target engagement (more negative = stronger competition). The note with it: THP-1, incubation time: 4 h.

The full data set covers some 21,000 targets. This sample favours those with the largest changes.
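Also: competitive profiling in live THP-1 cells: cysteine peptides tagged with an iodoacetamide desthiobiotin (IA-DTB) probe, intensity after compound treatment relative to DMSO-treated cells.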

Chain of UniProt Q8WVB6 (Q8WVB6 whole entry, looked up): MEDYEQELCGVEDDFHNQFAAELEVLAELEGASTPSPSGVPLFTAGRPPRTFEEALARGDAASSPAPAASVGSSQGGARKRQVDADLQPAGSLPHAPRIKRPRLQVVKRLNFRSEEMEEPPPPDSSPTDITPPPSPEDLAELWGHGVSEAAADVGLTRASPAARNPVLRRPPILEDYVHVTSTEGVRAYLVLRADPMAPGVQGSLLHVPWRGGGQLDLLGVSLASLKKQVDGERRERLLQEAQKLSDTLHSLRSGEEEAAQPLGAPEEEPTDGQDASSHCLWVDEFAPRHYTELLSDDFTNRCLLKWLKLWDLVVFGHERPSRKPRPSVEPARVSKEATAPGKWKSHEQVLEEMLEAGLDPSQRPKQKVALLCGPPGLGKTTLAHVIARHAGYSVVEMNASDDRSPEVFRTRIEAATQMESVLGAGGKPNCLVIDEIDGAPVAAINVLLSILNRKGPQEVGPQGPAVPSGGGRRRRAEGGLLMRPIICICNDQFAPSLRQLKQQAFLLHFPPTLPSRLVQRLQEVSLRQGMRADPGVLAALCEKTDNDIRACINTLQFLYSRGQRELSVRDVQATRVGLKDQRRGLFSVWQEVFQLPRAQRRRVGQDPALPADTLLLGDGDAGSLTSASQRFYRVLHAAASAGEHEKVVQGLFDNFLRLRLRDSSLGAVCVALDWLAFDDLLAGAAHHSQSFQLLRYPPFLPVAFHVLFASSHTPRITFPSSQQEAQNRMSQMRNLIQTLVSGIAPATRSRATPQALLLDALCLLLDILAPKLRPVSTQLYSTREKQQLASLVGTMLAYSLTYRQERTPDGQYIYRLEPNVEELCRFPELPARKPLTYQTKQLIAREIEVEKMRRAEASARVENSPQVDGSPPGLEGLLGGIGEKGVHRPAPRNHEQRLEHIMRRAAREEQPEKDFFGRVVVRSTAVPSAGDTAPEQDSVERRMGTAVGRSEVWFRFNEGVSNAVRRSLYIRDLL
Chain of UniProt Q5JPI3 (Q5JPI3 whole entry, looked up): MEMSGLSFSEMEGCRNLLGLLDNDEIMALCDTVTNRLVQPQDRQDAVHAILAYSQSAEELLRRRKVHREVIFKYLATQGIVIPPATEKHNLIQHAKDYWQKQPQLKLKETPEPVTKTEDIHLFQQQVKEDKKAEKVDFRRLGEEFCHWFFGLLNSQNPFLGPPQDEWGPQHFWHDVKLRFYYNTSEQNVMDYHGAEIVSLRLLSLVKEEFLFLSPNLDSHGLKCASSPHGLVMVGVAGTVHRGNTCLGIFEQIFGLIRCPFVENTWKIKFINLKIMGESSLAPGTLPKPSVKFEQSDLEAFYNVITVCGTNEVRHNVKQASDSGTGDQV
Chain of UniProt P50990 (P50990 whole entry, looked up): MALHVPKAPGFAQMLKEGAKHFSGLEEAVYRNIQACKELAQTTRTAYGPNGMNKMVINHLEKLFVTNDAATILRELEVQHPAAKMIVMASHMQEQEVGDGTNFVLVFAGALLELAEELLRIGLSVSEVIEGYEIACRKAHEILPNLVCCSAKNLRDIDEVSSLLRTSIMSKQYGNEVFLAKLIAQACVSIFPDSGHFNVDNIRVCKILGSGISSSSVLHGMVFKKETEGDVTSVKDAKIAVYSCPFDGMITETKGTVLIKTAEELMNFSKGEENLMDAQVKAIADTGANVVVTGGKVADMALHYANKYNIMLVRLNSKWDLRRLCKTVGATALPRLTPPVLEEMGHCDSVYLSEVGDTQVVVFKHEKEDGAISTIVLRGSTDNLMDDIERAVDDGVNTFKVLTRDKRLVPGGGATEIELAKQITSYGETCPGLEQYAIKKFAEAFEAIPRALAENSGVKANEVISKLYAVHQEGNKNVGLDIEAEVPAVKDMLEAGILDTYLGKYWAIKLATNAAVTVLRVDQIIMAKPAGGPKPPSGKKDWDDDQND
Chain of UniProt P20810 (P20810 whole entry, looked up): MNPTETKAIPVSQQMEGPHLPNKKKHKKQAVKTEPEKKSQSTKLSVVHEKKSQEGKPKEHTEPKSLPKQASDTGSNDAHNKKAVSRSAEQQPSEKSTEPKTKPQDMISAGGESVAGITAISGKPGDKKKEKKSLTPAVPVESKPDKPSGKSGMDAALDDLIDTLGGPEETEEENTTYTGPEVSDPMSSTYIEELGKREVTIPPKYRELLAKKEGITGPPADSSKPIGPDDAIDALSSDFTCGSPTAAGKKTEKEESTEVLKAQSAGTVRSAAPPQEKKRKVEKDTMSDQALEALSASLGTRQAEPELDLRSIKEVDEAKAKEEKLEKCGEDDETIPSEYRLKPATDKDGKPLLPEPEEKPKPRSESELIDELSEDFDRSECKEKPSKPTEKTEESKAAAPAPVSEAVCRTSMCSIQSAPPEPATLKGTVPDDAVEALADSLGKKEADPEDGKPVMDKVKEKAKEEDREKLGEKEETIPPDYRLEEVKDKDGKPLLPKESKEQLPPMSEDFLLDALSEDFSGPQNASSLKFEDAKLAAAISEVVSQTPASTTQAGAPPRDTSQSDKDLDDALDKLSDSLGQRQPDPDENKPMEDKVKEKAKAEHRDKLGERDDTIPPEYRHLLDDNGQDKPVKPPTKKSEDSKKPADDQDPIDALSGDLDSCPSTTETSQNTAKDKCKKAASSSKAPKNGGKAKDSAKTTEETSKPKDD
Chain of UniProt Q6QNY0 (Q6QNY0 whole entry): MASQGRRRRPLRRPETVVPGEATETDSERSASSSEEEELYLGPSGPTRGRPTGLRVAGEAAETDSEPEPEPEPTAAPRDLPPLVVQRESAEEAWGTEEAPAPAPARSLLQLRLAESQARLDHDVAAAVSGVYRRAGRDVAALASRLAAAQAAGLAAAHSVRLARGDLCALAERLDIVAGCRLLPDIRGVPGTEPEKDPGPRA
Chain of UniProt Q99933 (Q99933 whole entry, looked up): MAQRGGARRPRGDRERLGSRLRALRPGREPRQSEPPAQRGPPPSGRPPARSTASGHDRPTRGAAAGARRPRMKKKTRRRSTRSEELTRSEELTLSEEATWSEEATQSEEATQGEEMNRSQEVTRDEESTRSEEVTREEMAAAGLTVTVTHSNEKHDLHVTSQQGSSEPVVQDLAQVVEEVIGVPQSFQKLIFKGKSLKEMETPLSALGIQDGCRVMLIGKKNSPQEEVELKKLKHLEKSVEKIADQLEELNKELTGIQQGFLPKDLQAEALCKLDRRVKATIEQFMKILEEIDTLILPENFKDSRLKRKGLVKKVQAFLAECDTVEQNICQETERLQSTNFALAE
Chain of UniProt P27824 (P27824 whole entry, looked up): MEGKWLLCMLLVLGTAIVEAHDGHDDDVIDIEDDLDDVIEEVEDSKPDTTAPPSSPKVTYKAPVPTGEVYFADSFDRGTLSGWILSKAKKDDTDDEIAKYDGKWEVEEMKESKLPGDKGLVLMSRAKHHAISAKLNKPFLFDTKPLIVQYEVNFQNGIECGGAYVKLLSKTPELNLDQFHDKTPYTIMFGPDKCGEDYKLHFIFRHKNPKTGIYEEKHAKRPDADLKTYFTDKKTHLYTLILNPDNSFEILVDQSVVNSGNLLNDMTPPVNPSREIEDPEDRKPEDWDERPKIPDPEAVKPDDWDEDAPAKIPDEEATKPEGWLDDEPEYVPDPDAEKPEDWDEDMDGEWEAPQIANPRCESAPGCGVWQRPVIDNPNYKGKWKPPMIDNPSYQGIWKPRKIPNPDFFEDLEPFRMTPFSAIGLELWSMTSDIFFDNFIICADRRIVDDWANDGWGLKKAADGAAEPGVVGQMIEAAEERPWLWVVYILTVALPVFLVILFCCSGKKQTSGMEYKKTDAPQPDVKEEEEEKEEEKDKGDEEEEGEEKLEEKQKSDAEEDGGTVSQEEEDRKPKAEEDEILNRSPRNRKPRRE
Chain of UniProt Q9UBB4 (Q9UBB4 whole entry, looked up): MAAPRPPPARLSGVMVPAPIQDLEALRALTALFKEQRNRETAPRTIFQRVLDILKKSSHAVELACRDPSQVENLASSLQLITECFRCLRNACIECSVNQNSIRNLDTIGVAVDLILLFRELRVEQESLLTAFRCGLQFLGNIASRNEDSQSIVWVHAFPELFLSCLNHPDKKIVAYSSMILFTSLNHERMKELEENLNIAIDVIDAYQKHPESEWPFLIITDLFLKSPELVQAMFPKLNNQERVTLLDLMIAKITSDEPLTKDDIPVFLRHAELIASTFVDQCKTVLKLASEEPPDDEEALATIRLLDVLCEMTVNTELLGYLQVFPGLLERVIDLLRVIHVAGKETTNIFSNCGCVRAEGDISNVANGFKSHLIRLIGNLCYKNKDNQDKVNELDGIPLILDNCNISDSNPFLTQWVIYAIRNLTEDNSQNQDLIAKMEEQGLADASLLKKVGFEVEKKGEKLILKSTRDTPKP
Chain of UniProt P45973 (P45973 whole entry, looked up): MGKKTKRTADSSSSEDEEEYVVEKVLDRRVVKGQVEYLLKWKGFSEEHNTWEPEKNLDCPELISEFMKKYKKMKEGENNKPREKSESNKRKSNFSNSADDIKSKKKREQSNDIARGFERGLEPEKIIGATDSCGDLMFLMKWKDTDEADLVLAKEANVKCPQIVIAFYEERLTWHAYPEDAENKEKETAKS
Chain of UniProt Q8N9M1 (Q8N9M1 whole entry): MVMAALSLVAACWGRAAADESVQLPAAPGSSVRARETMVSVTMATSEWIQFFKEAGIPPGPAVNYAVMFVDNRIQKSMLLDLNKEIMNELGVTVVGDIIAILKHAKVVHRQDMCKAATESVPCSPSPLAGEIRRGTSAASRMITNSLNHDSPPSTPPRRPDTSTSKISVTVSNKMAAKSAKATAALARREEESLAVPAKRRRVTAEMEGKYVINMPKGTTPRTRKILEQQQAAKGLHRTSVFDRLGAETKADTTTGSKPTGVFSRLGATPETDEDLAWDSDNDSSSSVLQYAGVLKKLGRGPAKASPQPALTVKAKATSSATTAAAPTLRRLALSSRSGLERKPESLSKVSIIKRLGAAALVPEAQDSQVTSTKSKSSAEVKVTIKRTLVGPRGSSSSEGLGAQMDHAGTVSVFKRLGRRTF
Chain of UniProt P0C7P0 (P0C7P0 whole entry, looked up): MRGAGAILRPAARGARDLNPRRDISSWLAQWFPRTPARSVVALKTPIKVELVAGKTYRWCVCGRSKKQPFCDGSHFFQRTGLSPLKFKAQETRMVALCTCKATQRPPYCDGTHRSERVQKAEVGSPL

For the target “CCNB2_O95067_131_IEDIDNEDWENPQLCSDYVK (UniProt O95067)”, the “probe-labelled cysteine peptide fold change” value was 0.148 (10 µM) and -0.00128 (50 µM).
Taken in the same sequence, the figures for “CHTF18_Q8WVB6_825_LEPNVEELCRFPELPAR (UniProt Q8WVB6)” were -0.161 and -0.0269.
Taken in the same sequence, the figures for “CD33_P20138_325_LHGPTETSSCSGAAPTVEMDEELHYASLNFHGMNPSK (UniProt P20138)” were -0.258 and -0.378.
As to “CLPX_O76031_538_CELNVTEDALK (UniProt O76031)”, the “probe-labelled cysteine peptide fold change” value runs as follows: (10 µM) -0.194; (50 µM) -0.0926.
On to “CHSY1_Q86X52_48_ASPEGCR (UniProt Q86X52)”, for which the “probe-labelled cysteine peptide fold change” value was -0.0127 (10 µM) and -0.326 (50 µM).
Turning to “CISD3_P0C7P0_71_KQPFCDGSHFFQR (UniProt P0C7P0)”, the “probe-labelled cysteine peptide fold change” value (10 µM) was -0.114 and the “probe-labelled cysteine peptide fold change” value (50 µM) was -0.265.
As for “CAPZB_P47756_206_QMEKDETVSDCSPHIANIGR (UniProt P47756)”, the “probe-labelled cysteine peptide fold change” value is, setting by setting: (10 µM) -0.603; (50 µM) -1.32.
Taken in the same sequence, the figures for “CFL1_P23528_139_LTGIKHELQANCYEEVK (UniProt P23528)” were -0.346 and -1.35.
In the case of “BLVRA_P53004_281_RILHCLGLAEEIQK (UniProt P53004)”, the “probe-labelled cysteine peptide fold change” value was 0.0103 (10 µM) and 0.216 (50 µM).
Turning to “CLASP1_Q7Z460_864_QTEDVAEVLNHCASSNWSER (UniProt Q7Z460)”, the “probe-labelled cysteine peptide fold change” value (10 µM) is 0.592 and the “probe-labelled cysteine peptide fold change” value (50 µM) worked out at 0.131.
Taken in the same sequence, the figures for “BRAT1_Q6PJG6_513_LCHPCWEVR (UniProt Q6PJG6)” were -0.507 and -2.32.
Taken in the same sequence, the figures for “CLPB_Q9H078_572_INEIVYFLPFCHSELIQLVNK (UniProt Q9H078)” were 0.361 and 0.035.
Taken in the same sequence, the figures for “ATXN10_Q9UBB4_165_NEDSQSIVWVHAFPELFLSCLNHPDKK (UniProt Q9UBB4)” were 0.248 and 0.293.
With “C19orf47_Q8N9M1_123_AATESVPCSPSPLAGEIR (UniProt Q8N9M1)”, the “probe-labelled cysteine peptide fold change” value is 0.172 (10 µM) and 0.184 (50 µM).
With “CHAMP1_Q96JM3_41_GTDYENVQIHMGTIHPEFCDEMDAGGLGK (UniProt Q96JM3)”, the “probe-labelled cysteine peptide fold change” value by setting is: (10 µM) 0.114; (50 µM) -0.0442.
Taken in the same sequence, the figures for “CCS_O14618_246_QICSCDGLTIWEER (UniProt O14618)” were -0.283 and -3.77.
Taken in the same sequence, the figures for “CDK13_Q14004_644_CLLADLPLPPELPGGDDLSK (UniProt Q14004)” were -0.13 and -0.34.
Consider “BLOC1S3_Q6QNY0_168_GDLCALAER (UniProt Q6QNY0)”, for which the “probe-labelled cysteine peptide fold change” value (10 µM) is -0.161 and the “probe-labelled cysteine peptide fold change” value (50 µM) was -1.28.
Taken in the same sequence, the figures for “CANX_P27824_194_TPYTIMFGPDKCGEDYK (UniProt P27824)” were -0.61 and -1.04.
Taken in the same sequence, the figures for “CAD_P27708_1374_VTAVDWHFEEAVDGECPPQR (UniProt P27708)” were -0.246 and -1.09.
On to “CD58_P19256_161+166_GLIMYSWDCPMEQCK (UniProt P19256)”, for which the “probe-labelled cysteine peptide fold change” value is, setting by setting: (10 µM) -0.0112; (50 µM) -0.0875.
Turning to “BMP2K_Q9NSY1_197_VENILLNDGGNYVLCDFGSATNK (UniProt Q9NSY1)”, the “probe-labelled cysteine peptide fold change” value by setting is: (10 µM) 0.0762; (50 µM) 0.0663.
Taken in the same sequence, the figures for “CCT8_P50990_148+149_AHEILPNLVCCSAK (UniProt P50990)” were 0.158 and -1.06.
As for “CKAP5_Q14008_637_AVELMDRTEMPCQALVR (UniProt Q14008)”, the “probe-labelled cysteine peptide fold change” value is -0.107 (10 µM) and -0.426 (50 µM).
Taken in the same sequence, the figures for “CASP8_Q14790_313_IYQLMDHSNMDCFICCILSHGDK (UniProt Q14790)” were -0.0657 and 0.147.
Taken in the same sequence, the figures for “CAST_P20810_328_CGEDDETIPSEYR (UniProt P20810)” were -0.0978 and -0.058.
Turning to “CD3EAP_O15446_14_FSCPPNFTAKPPASESPR (UniProt O15446)”, the “probe-labelled cysteine peptide fold change” value by setting is: (10 µM) -0.00148; (50 µM) 0.231.
Regarding “C3orf38_Q5JPI3_259_CPFVENTWK (UniProt Q5JPI3)”, the “probe-labelled cysteine peptide fold change” value (10 µM) is -0.493 and the “probe-labelled cysteine peptide fold change” value (50 µM) is -1.53.
Taken in the same sequence, the figures for “BIRC6_Q9NR09_3673_RHHVPQQCNK (UniProt Q9NR09)” were -0.383 and -1.8.
Taken in the same sequence, the figures for “CBX5_P45973_59_NLDCPELISEFMK (UniProt P45973)” were 0.16 and 0.0939.
Taken in the same sequence, the figures for “BLMH_Q13867_269_ICLVNDPRPQHK (UniProt Q13867)” were -0.0458 and 0.0884.
Consider “BRD1_O95696_729_ELLDMLDLTCAMK (UniProt O95696)”, for which the “probe-labelled cysteine peptide fold change” value (10 µM) was -0.0322 and the “probe-labelled cysteine peptide fold change” value (50 µM) was 0.146.
Taken in the same sequence, the figures for “BCCIP_Q9P287_141_GTQCVEQIQELVLR (UniProt Q9P287)” were -0.00329 and 0.117.
Taken in the same sequence, the figures for “BARGIN_Q6ZT62_64_LQACLQGQSGADMDKR<|>SH3BP1_Q9Y3L3_56_LQACLQGQSGADMDKR (UniProt Q9Y3L3+Q6ZT62)” were -0.0791 and -0.0804.
As to “CARS_P49589_506_ALCDNVDTR (UniProt P49589)”, the “probe-labelled cysteine peptide fold change” value runs as follows: (10 µM) 0.0156; (50 µM) -0.0518.
As for “CFL1_P23528_139_KLTGIKHELQANCYEEVK (UniProt P23528)”, the “probe-labelled cysteine peptide fold change” value is -0.294 (10 µM) and -1.18 (50 µM).
Regarding “BAG1_Q99933_330_KVQAFLAECDTVEQNICQETER (UniProt Q99933)”, the “probe-labelled cysteine peptide fold change” value was -0.133 (10 µM) and -0.168 (50 µM).
